# Among all 390,000 compounds or so, about 1,400 (0.36%) were called active. The shares of active, inactive and inconclusive entries below differ from those in the screen. Calls come from the whole dose curve; as a rule, active = well fitted inhibition curve with a large enough effect; inconclusive = small, poorly fitted or top-dose-only effect; inactive = no such curve, though single readings can be large or run the other way. Where the call is inconclusive, the potency comes from a doubtful curve fit.
# Target: Flap endonuclease 1 (Homo sapiens) (UniProt P39748)
# Assay: qHTS Assay for the Inhibitors of Human Flap endonuclease 1 (FEN1). Note: nearly all actives have a fitted effect of over 65% in size.
# Conditions: Recombinant FEN1 flap cleavage, fluorescence, 15 min; series mostly up to 114 µM
# Outline: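 With each library titrated from low to high concentration, compounds met 10 nM FEN1 for 15 min at room temperature before 50 nM substrate was added; readings at 0 and 15 min fed four-parameter Hill curve fits.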
# Potency is the fitted concentration of half-maximal effect; tags give direction and shape of the fitted curve.
# Sequence of UniProt P39748 (P39748 whole entry, looked up): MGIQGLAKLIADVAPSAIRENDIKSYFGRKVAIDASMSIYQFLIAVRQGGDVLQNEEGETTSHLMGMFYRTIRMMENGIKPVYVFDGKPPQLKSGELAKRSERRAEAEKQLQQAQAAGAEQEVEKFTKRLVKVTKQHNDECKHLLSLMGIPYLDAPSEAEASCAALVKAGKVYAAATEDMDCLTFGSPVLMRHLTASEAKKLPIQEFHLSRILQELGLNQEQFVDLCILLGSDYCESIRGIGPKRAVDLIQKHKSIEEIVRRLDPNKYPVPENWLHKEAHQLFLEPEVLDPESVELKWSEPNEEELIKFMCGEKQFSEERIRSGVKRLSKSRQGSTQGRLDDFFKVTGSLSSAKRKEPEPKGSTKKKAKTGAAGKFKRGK
row,Structure (SMILES),Potency
1,Cc1cc(N2CCCC2)ccc1/C=N/n1cnnc1,"inconclusive: 70.8 µM [inhibitor, partial curve, poor fit]"
2,O=C1c2ccccc2C(=O)N1CCCCON1C(=O)c2ccccc2C1=O,inactive
3,CCCS(=O)(=O)N1CC(=O)N(c2ccc(C)c(Cl)c2)C(C)(C(=O)NC2CCCCCC2)C1 (stereo not given),"inconclusive: 89.1 µM [inhibitor, single point]"
4,C[n+]1ccc(/C=C/c2ccc3c(c2)OCO3)c2ccccc21,"inconclusive: 44.7 µM [inhibitor, partial curve]"
5,Cc1cc(-c2ccccc2)nc2oc(C(=O)NN)c(N)c12,"inconclusive: 56.2 µM [inhibitor, partial curve, poor fit]"
6,COc1ccc(CN2C(=O)C(CC(C)C)Nc3ncnc(N4CCCCC4)c32)cc1 (stereo not given),"inconclusive: 70.8 µM [inhibitor, partial curve, poor fit]"
7,COc1cc(NS(=O)(=O)c2ccc(NC(=O)c3ccc(Cl)cc3Cl)cc2)nc(OC)n1,"inconclusive: 89.1 µM [inhibitor, single point]"
8,O=C(NCc1ccc(F)cc1)C(=O)NCC(c1ccc2c(c1)OCO2)N1CCOCC1 (stereo not given),inactive
9,Fc1ccc(CSc2ccc3nnc(-c4cccnc4)n3n2)cc1,"inconclusive: 56.2 µM [inhibitor, partial curve, poor fit]"
10,COc1ccc(CCNC(=O)C(C)n2nc(C)c3sc4ccccc4c3c2=O)c(OC)c1 (stereo not given),"inconclusive: 56.2 µM [inhibitor, partial curve, poor fit]"
11,CC[N+](C)(C)c1ccc(/C=C/c2ccc3ccccc3n2)cc1,active: 44.7 µM
12,Cc1ccc(NC(=O)c2ccc(NCCCN3CCOCC3)c([N+](=O)[O-])c2)cc1Cl,"inconclusive: 89.1 µM [inhibitor, partial curve, poor fit]"
13,Cc1cc(C)n(C(C)CC(=O)NCc2ccccc2C)n1 (stereo not given),inactive
14,COc1cc(C(=S)N2CCOCC2)ccc1OC(=O)c1ccccc1C,"inconclusive: 31.6 µM [inhibitor, partial curve, poor fit]"
15,c1ccc(C2CSc3ccccc3N2)cc1 (stereo not given),inactive
16,CCCOc1ccc(/C=C/C(=O)Nc2sc(C)c(C)c2C(=O)OCC)cc1OC,"inconclusive: 89.1 µM [inhibitor, single point]"
17,CCCN1CCN(CCCNC(=O)c2cc3c(Cl)nc4ccccc4c3s2)CC1,active: 44.7 µM
18,CC(C)(C)c1ccc(OCc2ccc(C(=O)N/N=C/c3ccc(O)c(O)c3)cc2)cc1,"inconclusive: 89.1 µM [inhibitor, partial curve, poor fit]"
19,Cc1cc(NC(=O)Nc2c[nH]c(=O)[nH]c2=O)ccc1Br,"inconclusive: 100 µM [inhibitor, single point]"
20,NS(=O)(=O)c1ccc(NC(=O)c2cnn3c2NC(=C2CC2)C=C3C(F)F)cc1,inactive

row,Structure (SMILES),Potency
1,Cc1c(C(=O)NC(C)c2ccccc2)sc2ncnc(N(C)C3CCCCC3)c12 (stereo not given),inactive
2,O=S(=O)(c1ccc(F)cc1)N1CC=C(c2ccccc2)CC1,"inconclusive: 89.1 µM [inhibitor, partial curve, poor fit]"
3,CCOc1ccccc1/C=N/n1c(C2CCCCC2)n[nH]c1=S,"inconclusive: 44.7 µM [inhibitor, partial curve, poor fit]"
4,N#Cc1cc2c(=O)n3ccccc3nc2n(CCCn2ccnc2)c1=N,"inconclusive: 15.8 µM [inhibitor, partial curve, poor fit]"
5,COc1ccc(C(=O)NCCn2cc(SCc3cccc(F)c3)c3ccccc32)cc1OC,"inconclusive: 44.7 µM [inhibitor, partial curve, poor fit]"
6,CN(C)c1cc(-c2ccc(Cl)cc2Cl)oc(=O)c1Cl,"inconclusive: 63.1 µM [inhibitor, partial curve, poor fit]"
7,CCOC(=O)c1cccc(NC(=O)Cn2nc3c(cc2=O)CCCC3)c1,inactive
8,C#CCOCCOCCOCCNc1nc(N2CCN(C(=O)CCCCCCCCCCNC(=O)[C@H]([C@@H](C)CC)n3cc(CCCCN=C(N)N)nn3)CC2)nc(N2CCN(C(=O)CCCCCCCCCCNC(=O)[C@H](CCCCN)n3cc(C)nn3)CC2)n1,active: 25.1 µM
9,CN(C)c1cccc2c1C(=O)c1ccccc1C2=O,"inconclusive: 56.2 µM [inhibitor, partial curve, poor fit]"
10,O=C(COC(=O)c1ccc([N+](=O)[O-])o1)NCCCc1ccccc1,"inconclusive: 35.5 µM [inhibitor, single point]"
11,CCCc1nc(SCC(=O)c2ccc(F)cc2)c2ccccc2n1,"inconclusive: 50.1 µM [inhibitor, partial curve, poor fit]"
12,COc1cccc(C2C(C(=O)Nc3ccccc3OC)=C(C)Nc3nc(-c4ccco4)nn32)c1 (stereo not given),"inconclusive: 79.4 µM [inhibitor, partial curve, poor fit]"
13,CC(=O)/C=C/c1ccc2c(c1)S(=O)(=O)N(C1CCCC1)[C@H]2CC(C)=O,"inconclusive: 35.5 µM [inhibitor, partial curve, poor fit]"
14,C/C(N)=C(/C#N)C(=O)CSc1nn(-c2ccc(Cl)cc2)c(=S)s1,"inconclusive: 79.4 µM [inhibitor, partial curve]"
15,COC(=O)c1cc(=O)c2c([N+](=O)[O-])ccc(OC)c2o1,inactive
16,O=C(/C=C/c1ccc(Br)o1)NC(c1ccccc1)c1ccccc1,"inconclusive: 89.1 µM [inhibitor, single point]"
17,O=C(Cn1cnc2cc([N+](=O)[O-])ccc2c1=O)Nc1cccc(S(=O)(=O)N2CCCCC2)c1,"inconclusive: 56.2 µM [inhibitor, partial curve, poor fit]"
18,Nc1ccc(-c2nc3ccc([N+](=O)[O-])cc3[nH]2)cc1,"inconclusive: 50.1 µM [inhibitor, partial curve]"
19,Cc1cccc(N2CCN(CCCNC(=O)Cn3ncc4c([nH]c5ccccc54)c3=O)CC2C)c1 (stereo not given),inactive
20,NC(=O)Cn1ccc(O)c(Cc2ccc(Cl)cc2Cl)c1=O,inactive

# — PubChem BioAssay AID588795 (National Center for Advancing Translational Sciences (NCATS), 2011)
